Measured values taken from PubChem BioAssay AID488969 (Vanderbilt High Throughput Screening Facility, 2010).
Over roughly 110,000 compounds, “z-score” has its median near -0.1; the highest 2% begin near 2. The list shows a part of the results.

Molecular target: Metabotropic glutamate receptor 8 (Rattus norvegicus) (UniProt P70579)
Assay: rat mGluR8 modulators via GIRK flux, primary screen, cell-based, thallium flux, HTS (AID 488969)
Settings: HEK293 rat mGluR8, GIRK (G protein-gated inwardly rectifying potassium channel) thallium flux, FluoZin2; at 10 µM; stronger effect = higher value; submaximal glutamate (EC20) added with thallium

UniProt P70579, sequence (P70579 whole entry, looked up): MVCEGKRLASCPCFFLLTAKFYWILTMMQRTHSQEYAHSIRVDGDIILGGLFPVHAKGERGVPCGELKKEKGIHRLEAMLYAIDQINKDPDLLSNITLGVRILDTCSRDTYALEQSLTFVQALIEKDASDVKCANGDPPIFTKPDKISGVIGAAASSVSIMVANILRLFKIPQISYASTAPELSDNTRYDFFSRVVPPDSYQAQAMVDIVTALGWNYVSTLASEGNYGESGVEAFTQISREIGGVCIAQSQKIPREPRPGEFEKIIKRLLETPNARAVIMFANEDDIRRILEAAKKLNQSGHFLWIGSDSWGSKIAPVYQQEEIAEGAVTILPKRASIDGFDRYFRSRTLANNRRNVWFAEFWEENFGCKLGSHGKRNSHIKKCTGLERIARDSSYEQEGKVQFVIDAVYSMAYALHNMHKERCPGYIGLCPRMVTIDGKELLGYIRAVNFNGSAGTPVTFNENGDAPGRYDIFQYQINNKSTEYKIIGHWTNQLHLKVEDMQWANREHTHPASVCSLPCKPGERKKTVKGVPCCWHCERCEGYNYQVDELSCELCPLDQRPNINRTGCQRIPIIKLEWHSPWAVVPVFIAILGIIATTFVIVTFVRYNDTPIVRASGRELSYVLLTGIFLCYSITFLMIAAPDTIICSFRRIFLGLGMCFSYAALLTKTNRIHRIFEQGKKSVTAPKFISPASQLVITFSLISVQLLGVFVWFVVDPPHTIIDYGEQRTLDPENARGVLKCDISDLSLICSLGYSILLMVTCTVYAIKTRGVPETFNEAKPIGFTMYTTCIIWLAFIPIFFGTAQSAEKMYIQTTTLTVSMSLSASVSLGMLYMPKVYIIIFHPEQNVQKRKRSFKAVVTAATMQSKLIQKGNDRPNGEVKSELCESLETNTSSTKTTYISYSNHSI

SMILES | z-score
CCC(C)c1ccc(NC(=O)C2CCN(c3ccc(C(F)(F)F)cn3)CC2)cc1 (configuration not stated) | -0.0918
Cn1c(=NC(=O)C2CCN(S(=O)(=O)c3cccs3)CC2)sc2ccccc21 | 0.924
CCN(CC)c1ccc(C(=O)OCC(=O)Nc2cc3oc4ccccc4c3cc2OC)cc1 | -0.23
CC1CCCC(NC(=O)COC(=O)CCC2CCCC2)C1C (configuration not stated) | -0.101
CC(C)(C)NC(=S)NCc1ccco1 | -0.0799
Cc1cccc(C2NS(=O)(=O)N=C2N)c1 (configuration not stated) | 0.106
O=C(O)CCC1(C(=O)O)OCCc2ccccc21 (configuration not stated) | 0.0687
CCOC(=O)c1c(C)[nH]c(C(=O)Cn2c(=O)c3c(ncn3CC)n(Cc3ccccc3)c2=O)c1C | -0.0206
O=C(COc1cccc2ccccc12)N1CCN(c2ccccn2)CC1 | 0.0163
Cc1ccc(C)c(NC(=O)CSc2nnc(C)c(=O)n2N)c1 | -0.19
CCC1(C)Cc2c(c(=O)n(-c3ccccc3)c3ncnc(N)c23)CO1 (configuration not stated) | 0.727
O=C(COc1ccccc1-c1ccccc1)N/N=C/c1ccc2ccccc2c1 | -0.0388
COc1cccc(NC(=O)CCN2C(=O)c3ccccc3S2(=O)=O)c1 | -0.282
CCOc1ccc2nc(SCC(=O)Nc3ccc4c(c3)OCO4)sc2c1 | -0.00217
Cc1ccc(NC(=S)/C(=C(\[O-])c2ccc(C)c([N+](=O)[O-])c2)[n+]2ccccc2)cc1C | 0.0215
O=C(NNC(=S)NCc1ccccc1)c1ccc(OC(F)F)cc1 | 2.12
COc1ccccc1OCC(=O)Nc1nc(-c2ccc(S(=O)(=O)N3CCOCC3)cc2)cs1 | 0.0252
COc1ccc(NC(=O)OC(CN2CCCCC2)C(F)(F)F)cc1 (configuration not stated) | 0.0302
CN(CC(O)COc1c(F)cc(Br)cc1F)C1CCCCC1 (configuration not stated) | 0.202
CCOc1cc(C(=O)Nc2nnc(C)s2)cc(OCC)c1OCC | 1.04
CCC1CCCCN1C(=O)CSc1nnc(CNC(=O)c2ccco2)o1 (configuration not stated) | 0.0244
COc1ccc(/C=N/N=C2/NC(=O)C(c3ccccc3)(c3ccccc3)S2)cc1 | -0.136
CC([NH2+][O-])C(C)(C)NO (configuration not stated) | -0.189
CC(C)OCC(O)CN1CCNCC1 (configuration not stated) | -0.257

SMILES | z-score
Cc1ccc(-c2noc(CN(C(=O)C34CC5CC(CC(C5)C3)C4)C(C)C)n2)cc1 | 0.0589
Nc1nc2ccc(C(=O)NC3CCCCC3)cc2s1 | -0.619
C=CCOc1ccc(CNc2nn[nH]n2)cc1OC | -0.144
O=C(CN1CCCCC1)Nc1cc(Cl)ccc1Cl | 0.443
CN(C)CC1CCCCC1OC(=O)c1ccc(Cl)cc1 (configuration not stated) | 0.182
C=C(C)C1Cc2c(C)nn(-c3cccc4ccccc34)c2C1 (configuration not stated) | -1.35
Cn1c(=O)n(C)c2cc(S(=O)(=O)Nc3ccccc3O)ccc21 | -0.188
Cc1ccc2oc(=O)c3cnn(CC(=O)N4CCCCCC4)c3c2c1 | -0.256
COc1ccc(OC)c(NC(=O)Nc2cccc3ccccc23)c1 | -0.306
CCC(=O)N1CCN(c2nc3ccccc3s2)CC1 | -0.0557
Cc1nc2c3ccccc3n(CCN3CCCCC3)c2s1 | 0.34
CCOC(=O)c1c(C)oc2c1c1c(c3ccccc32)OCN(Cc2ccccn2)C1 | -0.209
O=C(Nc1ccc(Br)cc1)c1ccc(N2C(=O)C3CC=C(Cl)CC3C2=O)cc1 (configuration not stated) | -0.122
CCCOc1ccc(CC(=O)NNC(=S)Nc2ccccc2)cc1Br | 1.06
COc1ccc(-c2nsc3c(N4CCN(C(=O)c5ccco5)CC4)ncnc23)cc1 | -0.179
COc1cc2c(C(=O)NCc3ccccn3)cn(C)c(=O)c2cc1OC | 0.285
Clc1ccc(CN(Cc2ccccc2)C(c2cccs2)c2nnnn2C2CCCC2)cc1 (configuration not stated) | -0.0933
COC(=O)c1c(NC(=O)CSc2nnc(-c3ccco3)n2Cc2ccccc2)sc(C)c1C | -0.23
CCOC(=O)c1c(C)nc2ccc(Cl)cc2c1-c1ccccc1 | -0.289
O=C(c1ccc(Br)o1)N(c1ccc(Br)cc1)C1C=CS(=O)(=O)C1 (configuration not stated) | 0.889
COc1ccccc1NC(=O)c1nn(-c2ccc(Cl)cc2)ccc1=O | -0.217
COc1ccc(C)cc1NC(=O)C(OC(=O)CNC(=O)c1cc(C)cc(C)c1)c1ccccc1 (configuration not stated) | -0.0762
Cc1ccnc(-n2c(CCN3C(=O)c4ccccc4C3=O)nc3ccccc3c2=O)c1 | -0.208
CCOC(=O)c1ccccc1NC(=O)CCNC(=O)Cn1cnc2ccccc2c1=O | -0.535

SMILES | z-score
Cc1cccc(OCCC(=O)Nc2ccc(F)c(Cl)c2)c1 | 1.34
CC1CN/C(=C\C(=O)c2ccc(Cl)cc2)C(=O)N1 (configuration not stated) | 0.105
COc1ccccc1-c1nnc(SCc2ccccn2)n1C | 1.34
COc1cccc(-c2nnc(NC(=O)c3ccc4ncsc4c3)o2)c1 | 0.649
S=C(Nc1ccc(Cl)cc1)N1CCOCC1 | 0.122
C=CCNc1nc(-c2ccc(Cl)cc2)cs1 | -0.104
Cc1ccccc1C(=O)NNC(=O)CN1C(=O)c2ccccc2C1=O | -0.0438
Cc1cccc(OCCCC(=O)Nc2ccc(N3CCOCC3)cc2)c1 | 0.308
COc1ccc(Cl)cc1NC(=O)C(=O)NC1CCCCCC1 | 0.246
O=[N+]([O-])c1cc(C(F)(F)F)ccc1NCCCCNS(=O)(=O)c1ccc(Cl)cc1 | -0.137
O=S(=O)(CCc1nc2ccccc2o1)c1ccc(Cl)cc1 | 0.262
Cc1ccc(OCCCC(=O)Nc2nncs2)cc1 | -0.0937
COc1cccc2c(=O)n(CC(=O)Nc3cccc(F)c3)ccc12 | 0.0811
CCCCCn1ccc(=O)c2c(C(F)(F)F)nccc21 | -0.164
C1=C(c2cccc3ccccc23)N2CCN=C2S1 | 0.487
CCCN1CCN(C(=O)Nc2ccc(C(=O)OCC)cc2)CC1 | 0.101
CCC(=O)NCCN1CCN(C(=O)CC)CC1 | 0.112
O=C(CSc1nnc(-c2ccccn2)n1-c1ccccc1)Nc1ccc2c(c1)OCO2 | -0.262
S=c1[nH]ncn1/N=C/c1cccc(Oc2ccccc2)c1 | 1.85
Cc1cc2c(C)nc(N/N=C/c3ccccc3)nc2o1 | -0.0883
COc1ccc(OC(=O)c2cc3ccccc3o2)cc1 | 0.125
CCC(=O)c1cn(CC(=O)OC)c2ccccc12 | 0.885
COc1ccc(C2=NOC(C(=O)NCc3cccs3)C2)cc1 (configuration not stated) | -0.248
NC(=O)CSc1nc(-c2ccccc2)c(-c2ccccc2)o1 | -0.595

SMILES | z-score
O=C(c1cnn(C(=O)COc2ccc(Cl)cc2)c1)c1ccccc1O | -1.59
CC(Sc1nc2ccccc2s1)C(=O)Nc1ccc2c(c1)OCO2 (configuration not stated) | -0.149
CCCCC(=O)Nc1ccnc(-c2cccnc2)n1 | -0.109
COC(=O)CNC(=O)CN1C(=O)N(c2cccc(Cl)c2)C(N(O)C(=O)Nc2cccc(Cl)c2)C1(C)C (configuration not stated) | 0.365
O=C(NCc1ccco1)Nc1cccs1 | -0.42
CSc1ccccc1C(=O)N1CCN(c2ccc(F)cc2)CC1 | -0.0286
COc1ccc(/C=N/Nc2ccc([N+](=O)[O-])cc2)cc1Cn1cc([N+](=O)[O-])cn1 | -0.498
Cc1ccccc1C(=O)NC1CCN(CC(=O)Nc2c(C)cccc2C)CC1 | 0.736
CN(C)C=NC1=NN(c2cccc(C(F)(F)F)c2)CC1 | -0.113
CN(C=O)CP(=O)(O)CN1CCCCC1 | -0.279
CCOc1ccccc1NC(=O)Cc1c(F)cccc1Cl | -0.491
CCOC(=O)c1ccc(NC(=O)CNS(=O)(=O)c2ccccc2)cc1 | -0.133
Cc1sc2ncnc(SCC(=O)N3CCCC3)c2c1C | 0.342
COc1ccc2cc(/C=C/C(=O)c3ccco3)c(Cl)nc2c1 | -0.845
CCOc1ccc(NC(=O)c2cc3c(=O)n(C)c4ccccc4c3n2C)cc1 | -0.678
COc1cc2c(cc1NC(=O)c1ccncc1)oc1ccccc12 | -0.383
COc1ccc(NC(=S)N(CCN(C)C)C(C)c2ccco2)cc1 (configuration not stated) | -0.233
Cc1nnsc1Sc1cccc(C(F)(F)F)c1 | 0.0904
Cc1ccc(C)c(NCCC#N)c1 | 0.144
COc1ccc(C)cc1N(C(=O)c1ccccc1)c1nc2ccccc2s1 | -0.344
Cc1c(C(=O)Nc2ccc(Oc3ccccc3)cc2)sc2nc3n(c(=O)c12)CCC3 | 1.64
COc1cnc(SCC(=O)O)[nH]c1=O | -0.243
CCOC(=O)N1CCC2(CC1)C(C#N)=C(N)Oc1c2c(C)nn1-c1cccc(Cl)c1 | -0.473
COC(=O)COc1ccc(Oc2cc(C)nc(SC)n2)nn1 | -0.159

SMILES | z-score
CCNC(=O)/C(=C/c1ccco1)NC(=O)/C=C/c1ccccc1 | -0.13
O=C(COc1ccccc1)Nc1cccc(-c2nc3ccccc3[nH]2)c1 | -0.566
COCCCNCC(=O)c1c(N)n(Cc2ccccc2)c(=O)n(C)c1=O | -0.0535
Cc1cc(/C=N/NC(=O)c2cccs2)c(C)n1-c1ccccc1 | -0.317
COc1cccc(C(=O)NC(Cc2ccccc2)c2ccc3c(c2)OCCCO3)c1 (configuration not stated) | -0.279
CC(=O)Nc1ccccc1N(C)S(=O)(=O)c1ccc(C)cc1 | 0.334
S=C(Nc1ccc(Cl)cc1Cl)NC1CCN(Cc2ccccc2)CC1 | 0.338
CCC(C)(C)n1nnnc1C(c1cc2cc3c(cc2[nH]c1=O)OCO3)N1CCCCC1 (configuration not stated) | -0.327
N/C(=N\OC(=O)c1cccc(Cl)c1)c1cccnc1 | 0.314
O=C1c2ccccc2C(=O)N1CCc1csc(-c2ccc(F)cc2)n1 | -0.208
CC1(C)CC(=O)C(C=Nc2ccc3cn[nH]c3c2)=C(O)C1 | -1.3
N=c1c2c3c(sc2nc2n1CCCCC2)CCCC3 | 1.56
Cc1cc2nnc(SCC(=O)OC(C)C)n2c2ccccc12 | -2.26
O=C1N2CCCc3cccc(c32)C12Nc1ccccc1S2 (configuration not stated) | 0.109
CCOc1ccc(NC(=O)c2cnccn2)cc1 | -0.73
CC1CCN(C(=O)c2cc3nc(-c4ccccc4)cc(-c4ccccc4)n3n2)CC1 | -0.0035
COC(=O)CCC(=O)NNC(=O)c1ccc(Cl)cc1Cl | 0.047
Brc1ccc(OCCOCCOc2cccc3cccnc23)cc1 | -0.0876
O=C(c1ccccc1S(=O)(=O)NCc1ccccc1)N1CCCC1 | 0.32
O=C(CCN1C(=O)c2ccccc2C1=O)Nc1cccc(F)c1 | 0.534
CCCNC(=O)N1CCN(c2nc(C(C)C)c3c(c2C#N)CC(C)(C)OC3)CC1 | -0.42
